Results published in PubChem BioAssay (NCATS).
“And” between values parts separate entries of the source, which are not always exact repeats. Equal entries are not always repeated. The inconclusive results got no clear call from the source; some entries with a clear call stand among them for comparison. Potencies of inconclusive entries are doubtful fits and often do not repeat. The source made the active and inactive calls. The call rests on the fitted dose curve; in most records, active means well fitted cell-killing curve with a large enough effect; inconclusive means small, poorly fitted or top-dose-only effect; inactive means no such curve, though single readings can be large or run the other way.

Experiment: qHTS of pediatric cancer cell lines to identify multiple opportunities for drug repurposing: Primary screen for NB1643 cells (AID 1347099); further: nearly all actives have a fitted effect of over 50% in size
Conditions: NB1643 neuroblastoma viability, CellTiter-Glo luminescence, 48 h; series mostly up to 46 µM
Source text: Drug repurposing or repositioning has been offered as a strategy for drug development in oncology programs. This approach has special potential for childhood cancers and other rare or orphan diseases, where the expected return on new drug development has been a disincentive to pharmaceuticals. […] In this project we exploit the poly-pharmacology of drugs to discover new indications via phenotypic screening of a panel of 19 well-characterized cell lines derived from solid tumors seen in children and adolescents. The goal is to identify approved drugs with previously unrecognized anticancer properties that has the potential to reveal new mechanisms and biological processes involved in carcinogenesis or drug resistance. We employed a titration-based paradigm (quantitative high-throughput screening or qHTS), where all compounds were tested at multiple concentrations for their effect on cell viability. Concentration-response curves (CRCs) were derived directly from the primary screen, and both potency and efficacy values were used to identify compounds with robust bioactivity profiles. We screened the NIH Chemical Genomics Center (NCGC) Pharmaceutical Collection (NPC) and Mechanism Interrogation Plate (MIPE) small molecule collections of approved and investigational compounds against these cell lines; and measured metabolically active cells after 48 hours of compound treatment as a proxy for cell viability. […] Assay Submitter: Nathalia J. Martinez, National Center for Advancing Translational Sciences, National Institutes of Health, Rockville, MD, USA; email: natalia.martinez@nih.gov Shen, M et al. Quantitative high-throughput phenotypic screening of pediatric cancer cell lines identifies multiple opportunities for drug repurposing. Oncotarget 2017 Dec 19;9(4):4758-4772. PMID 29435139.
The cells were obtained from University of North Carolina (UNC), Pediatric Preclinical Testing Program (PPT), and Coriell Institute (CI). qHTS cell viability assay: Cells were assayed in growth media at a density of 500-1,000 cells/well. Five microliters of cells were dispensed into 1,536-well, white, solid-bottom, TC-treated plates (Greiner Bio One) using a multidrop dispenser and incubated at 37 degrees C, 5% CO2, under a humidified atmosphere for 5 hours. Twenty-three nanoliters of compounds and controls (neutral control DMSO or positive control bortezomib at final concentration of 2.3 µM) were subsequently transferred by Kalypsys pintool. For primary screens, the MIPE collection was tested at 11-point dilutions (final concentrations range from 0.78 nM to 46 µM) and the NPC collection at 8-point dilutions (final concentrations range from 0.59 nM to 46 µM). Compounds tested in follow-up screens were assayed at 11-point dilutions. Cells were incubated for 48 hours, followed by addition of 3 µL of CellTiter-Glo (Promega). After a 15 min incubation at room temperature, samples were analyzed for luminescence intensity using a ViewLux High-throughput CCD imager equipped with clear filters.
Potency means the concentration at half of the fitted maximal effect; tags describe the fitted curve by direction and shape.

Compound	Potency
Cc1cc(C(=O)NOCCO)c(Nc2ccc(I)cc2F)n(C)c1=O	inconclusive: 2.09 µM [cytotoxic, full curve]
C=C1C(=O)OC2C=C(C)CCC=C(C)CCC12 (stereo not given)	active: 23.5 µM
c1ccc(-c2nn3c(c2-c2ccnc4cc(OCCN5CCOCC5)ccc24)CCC3)nc1	inconclusive: 26.4 µM [cytotoxic, single point]
Cc1nc(Nc2ncc(C(=O)Nc3c(C)cccc3Cl)s2)cc(N2CCN(CCO)CC2)n1	inconclusive: 16.8 µM [cytotoxic, single point]
Cc1c[nH]c(C=C2C(=O)Nc3ccccc32)c1CCC(=O)O	inconclusive: 18.7 µM [cytotoxic, single point]
Cc1ccc(C(C)(O)c2nc3ccccc3s2)c(C)c1 (stereo not given)	inconclusive: 2.96 µM [cytotoxic, full curve]
COc1ccc(Nc2nccc(NCCO)n2)cc1	inconclusive: 37.2 µM [cytotoxic, single point]
CC1CCN(c2cc(N3CCN(C)CC3)ccc2NC(=O)c2cc(C#N)c[nH]2)CC1	inactive
NC(=O)c1nnn(Cc2cc(Cl)c(C(=O)c3ccc(Cl)cc3)c(Cl)c2)c1N	inconclusive: 37.2 µM [cytotoxic, single point]
COC1=C(OC)C(=O)C(CCCCCCCCCCO)=C(C)C1=O	inconclusive: 16.8 µM [cytotoxic, partial curve]
Clc1cc(Cl)cc(CNc2ncncc2-c2ccc3c(c2)OCO3)c1	inconclusive: 23.5 µM [cytotoxic, single point]
N[C@@H](Cc1cc(I)c(Oc2cc(I)c(O)c(I)c2)c(I)c1)C(=O)O	inconclusive: 18.7 µM [cytotoxic, partial curve]
CN(N=O)C(=O)N[C@H]1C(O)OC(CO)[C@@H](O)[C@H]1O (stereo not given in full)	inactive
CC[C@H]1OC(=O)[C@H](C)[C@@H](O[C@H]2C[C@@](C)(OC)[C@@H](O)[C@H](C)O2)[C@H](C)[C@@H](O[C@@H]2O[C@H](C)C[C@H](N(C)C)[C@@H]2O)[C@](C)(OC)C[C@@H](C)C(=O)[C@H](C)[C@@H](O)[C@]1(C)O	inconclusive: 26.4 µM [cytotoxic, single point]
CC(S)C(=O)NCC(=O)O (stereo not given)	inconclusive: 26.6 µM [cytotoxic, single point] and inconclusive: 16.6 µM [cytotoxic, partial curve]
COc1ccccc1N1CCN(CCN(C(=O)C2CCCCC2)c2ccccn2)CC1	inconclusive: 26.4 µM [cytotoxic, single point]
C[C@]1(c2nc3c(C(N)=O)cccc3[nH]2)CCCN1	active: 9.35 µM
O=C(NCc1ccncc1)C12C[C@H]3C[C@@H](C1)CC(c1ccc(Cl)cc1)(C3)C2	inconclusive: 4.69 µM [cytotoxic, full curve]
CN1C(=O)C[C@H](C(=O)N[C@@H](Cc2cnc[nH]2)C(=O)N2CCC[C@@H]2C(N)=O)NC1=O	inconclusive: 14.8 µM [cytotoxic, partial curve]
C[C@H]1c2cccc(O)c2C(O)=C2C(=O)[C@]3(O)C(O)=C(C(N)=O)C(=O)[C@@H](N(C)C)[C@@H]3[C@@H](O)[C@@H]21	inactive

Compound	Potency
C[C@@H]1CCO[C@H]2Cn3cc(C(=O)NCc4ccc(F)cc4F)c(=O)c(O)c3C(=O)N12	inconclusive: 29.6 µM [cytotoxic, single point]
Cc1coc2c1C(=O)C(=O)c1c-2ccc2c1CCCC2(C)C	inconclusive: 5.9 µM [cytotoxic, single point]
C[C@@H](NCCCc1cccc(C(F)(F)F)c1)c1cccc2ccccc12	inconclusive: 29.9 µM [cytotoxic, single point]
OC(CN1CCN(c2cccc(Cl)c2)CC1)C(c1ccccc1)c1ccccc1 (stereo not given)	inconclusive: 29.6 µM [cytotoxic, single point]
CCOC(=O)Nc1ccc(NCc2ccc(F)cc2)nc1N	inconclusive: 26.4 µM [cytotoxic, single point]
CCC(C)N(C)C(=O)c1cc2ccccc2c(-c2ccccc2Cl)n1 (stereo not given)	inconclusive: 18.7 µM [cytotoxic, partial curve]
O=C1N(c2ccccc2)c2ccccc2C1(Cc1ccncc1)Cc1ccncc1	inactive
Nc1ccn([C@@H]2O[C@H](CO)[C@@H](O)[C@H]2O)c(=O)n1	inconclusive: 3.72 µM [cytotoxic, partial curve]
CN[C@@H](C)C(=O)N[C@H]1CCCC[C@H]2CC[C@@H](C(=O)N[C@@H](c3ccccc3)c3cn(CCCCc4ccc(CCCCn5cc([C@@H](NC(=O)[C@@H]6CC[C@@H]7CCCC[C@H](NC(=O)[C@H](C)NC)C(=O)N76)c6ccccc6)nn5)cc4)nn3)N2C1=O	inactive
O=C1c2c(O)cc(O)cc2OC(c2ccc(O)c(O)c2)C1O (stereo not given)	inconclusive: 11.8 µM [cytotoxic, full curve]
COc1cc(NC(=O)c2ccc(-c3ccc(Cl)cc3)o2)cc(OC)c1	active: 6.62 µM
Cc1ccc(C(=O)c2cc(O)c(O)c([N+](=O)[O-])c2)cc1	inconclusive: 26.4 µM [cytotoxic, partial curve, poor fit]
CCC(C)n1ncn(-c2ccc(N3CCN(c4ccc(OC[C@H]5CO[C@](Cn6cncn6)(c6ccc(Cl)cc6Cl)O5)cc4)CC3)cc2)c1=O (stereo not given in full)	inconclusive: 1.32 µM [cytotoxic, full curve]
Nc1nnc(-c2cccc(Cl)c2Cl)c(N)n1	inconclusive: 33.2 µM [cytotoxic, single point]
Oc1ccc(-c2ccc(-c3cc(Nc4cccc(CNC5CC5)c4)n[nH]3)cc2)c(O)c1	inactive
CC=CCC=CCCC(=O)[C@H]1O[C@@H]1C(N)=O	inconclusive: 26.4 µM [cytotoxic, single point]
CCc1nc(N)nc(N)c1-c1ccc(Cl)cc1	inconclusive: 37.2 µM [cytotoxic, partial curve, poor fit]
CCCC(CCC)C(=O)O	inconclusive: 3.32 µM [cytotoxic, full curve]
Cc1cc(-c2ccc(CC(=O)Nc3ccc(-c4cccnc4)cc3)cc2)ccn1	inconclusive: 23.5 µM [cytotoxic, single point]
Nc1nc2c(ncn2COCCO)c(=O)[nH]1	inactive
